# Laboratory results as given in article PMC4336329 (PLoS ONE, 2015).
# About 2,200 (0.71%) of roughly 310,000 compounds showed an effect of 50% or more. The effect is printed as a negative number. The list shows a part of the results.
# Biological target: human ether-à-go-go-related gene (hERG) potassium channel (human, UniProt Q12809)
# Test: primary screen, population patch clamp on CHO cells stably expressing hERG
# human ether-à-go-go-related gene (hERG) potassium channel, sequence (Q12809 whole entry, looked up): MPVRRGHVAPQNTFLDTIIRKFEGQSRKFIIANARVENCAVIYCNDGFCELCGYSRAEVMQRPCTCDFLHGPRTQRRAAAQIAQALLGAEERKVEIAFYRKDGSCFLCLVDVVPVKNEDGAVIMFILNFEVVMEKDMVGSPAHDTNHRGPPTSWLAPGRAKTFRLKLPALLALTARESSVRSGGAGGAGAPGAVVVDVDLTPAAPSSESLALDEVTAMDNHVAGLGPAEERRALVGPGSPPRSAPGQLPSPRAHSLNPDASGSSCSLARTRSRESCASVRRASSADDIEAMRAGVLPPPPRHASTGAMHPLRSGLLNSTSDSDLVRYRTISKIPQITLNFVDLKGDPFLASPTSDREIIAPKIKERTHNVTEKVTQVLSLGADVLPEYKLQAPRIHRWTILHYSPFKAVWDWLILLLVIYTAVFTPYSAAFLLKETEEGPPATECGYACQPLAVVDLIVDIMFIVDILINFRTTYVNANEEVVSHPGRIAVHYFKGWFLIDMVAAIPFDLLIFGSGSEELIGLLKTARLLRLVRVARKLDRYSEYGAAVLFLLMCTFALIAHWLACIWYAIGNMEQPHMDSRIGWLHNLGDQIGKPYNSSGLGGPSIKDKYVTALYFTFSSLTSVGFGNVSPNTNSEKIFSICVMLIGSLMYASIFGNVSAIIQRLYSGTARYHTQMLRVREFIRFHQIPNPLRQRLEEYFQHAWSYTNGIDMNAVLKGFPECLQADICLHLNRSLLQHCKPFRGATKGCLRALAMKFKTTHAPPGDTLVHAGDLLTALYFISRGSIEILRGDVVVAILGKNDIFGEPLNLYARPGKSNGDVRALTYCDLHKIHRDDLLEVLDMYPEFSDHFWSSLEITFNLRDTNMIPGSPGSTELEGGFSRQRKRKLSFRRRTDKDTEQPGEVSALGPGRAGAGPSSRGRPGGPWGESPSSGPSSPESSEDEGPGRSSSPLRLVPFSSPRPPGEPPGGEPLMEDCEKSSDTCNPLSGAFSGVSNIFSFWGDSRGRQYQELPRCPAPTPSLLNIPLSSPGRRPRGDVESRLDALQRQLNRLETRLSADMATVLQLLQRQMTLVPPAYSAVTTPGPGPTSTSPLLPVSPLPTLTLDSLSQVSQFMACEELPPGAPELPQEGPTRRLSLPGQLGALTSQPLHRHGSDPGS
row,SMILES,"hERG current change (%, negative = inhibition) at 1uM [%]"
1,COC(=O)c1ccccc1NC(=O)C1CCN(S(C)(=O)=O)CC1,10
2,COc1ccc(N2CCN(C(=O)CN3C(=O)C4CC=CCC4C3=O)CC2)cc1 (stereo not shown),15.7
3,COc1ccccc1N1CCN(Cc2cccs2)CC1,-1.28
4,Cc1ccc(SC(CC(=O)c2ccc(C(C)(C)C)cc2)C(=O)O)cc1 (stereo not shown),11.1
5,CC(C)c1ccc(N(CC(=O)NCc2ccco2)C(=O)CCC(=O)Nc2ccccn2)cc1,7.8
6,CCCC(=O)NC(=S)Nc1cccc(Cl)c1N1CCCCC1,15.7
7,O=C(Nc1ccc(NC(=O)C2CC2)cc1)c1cccs1,1.63
8,Cc1ccccc1C(=O)N1CCC(C(=O)NN2C(=O)NC3(CCCCC3)C2=O)CC1,11.8
9,Cc1ccc(S(=O)(=O)N2CCN(C(=O)CN3CCOCC3)C2C(C)C)cc1 (stereo not shown),-3.71
10,COC(=O)c1ccc(CN2C(=O)c3ccccc3S2(=O)=O)cc1,-1.81
11,FC(F)(F)c1cnc(Oc2ccccc2-c2nnco2)c(Cl)c1,12
12,O=c1[nH]c2c(c(=O)n1C1CCCCC1)CCC2,10.6
13,C[C@H](CCC(=O)O)[C@H]1CC[C@H]2[C@@H]3[C@H](O)C[C@@H]4C[C@H](O)CC[C@]4(C)[C@H]3CC[C@]12C,7.13
14,Cc1cccc(C(=O)Nc2nnc(S(=O)(=O)N(C)Cc3ccco3)s2)c1,10.3
15,CN(CCc1ccccn1)c1ccc([N+](=O)[O-])cn1,11.7
16,CCOC(=O)CN1CC23C=CC(O2)C(C(=O)Nc2cc(OC)ccc2OC)C3C1=O (stereo not shown),0.194
17,CCOc1ccc(CCNC(=O)CCC(=O)Nc2ccc3nc(N4CCN(C)CC4)cc(C)c3c2)cc1OCC,15.5
18,O=C1[C@H]2CC3CCC2(O3)[C@@H]2OCCCN12 (stereo partly shown),2.7
19,CSc1ccccc1NC(=O)c1ccco1,5.93
20,O=C(OCc1nnc(-c2ccccc2)o1)c1ccc2c(c1)OCO2,9.58
21,NC(=O)C1CCN(C(=O)C2CCC(=O)N(Cc3ccc(Cl)cc3)C2)CC1 (stereo not shown),17.2
22,OCCC1CN(C2CCC2)CCN1Cc1ccc(F)c(F)c1 (stereo not shown),12.1
23,NC(=S)C1COc2ccccc2O1 (stereo not shown),12.9

row,SMILES,"hERG current change (%, negative = inhibition) at 1uM [%]"
1,O=C(NCc1cccs1)c1ccc2ccccc2n1,6.52
2,COc1ccc(CNC(=O)C(c2ccccc2F)N(C(=O)c2csnn2)C2CC2)cc1 (stereo not shown),7.44
3,CC1CCc2sc(C(=O)NCc3ccccn3)cc2C1 (stereo not shown),9.75
4,CCOC(=O)c1c[nH]c2c(Cl)c(Cl)ccc2c1=O,15.2
5,COc1ccccc1N(C)S(=O)(=O)c1ccc(C(=O)N2CCCc3ccccc32)cc1,9.64
6,Cc1cc2oc(=O)sc2cc1NS(=O)(=O)c1ccccc1,19
7,Cc1cccc(Cn2cnc3c(nnn3Cc3ccc(Cl)cc3)c2=O)c1,11.6
8,COc1ccccc1-c1nnc(SCC(=O)NC2CCCCC2)o1,-6.28
9,CC(=O)c1c(C)[nH]c(C(=O)OCc2c(F)cccc2Cl)c1C,7.25
10,CCCCC1=C([O-])C2N=CC=CC2=[N+](c2ccccn2)C1=O (stereo not shown),6.35
11,O=[N+]([O-])c1cc(Cl)ccc1Oc1ccc(-c2nnco2)cc1,17.4
12,COc1ccc(-c2nn(-c3ccccc3)cc2C(=O)N(C)CC(=O)Nc2ccc(N3CCOCC3)cc2)cc1,10.3
13,CCSc1nnc(NC(=O)CSc2nnc(CNC(=O)c3ccccc3F)o2)s1,6.65
14,N#Cc1ccc(Sc2ccccn2)c([N+](=O)[O-])c1,-5.24
15,CCOC(=O)C(Cc1ccc(O)cc1)NC(=O)CCc1c[nH]c2ccccc12 (stereo not shown),12.9
16,O=C(NCc1ccccc1)C(c1cccs1)N(Cc1cccs1)C(=O)c1cnccn1 (stereo not shown),4.6
17,C=CCc1cccc(CNc2nc3ccccc3n2CC)c1O,9.56
18,CCN1C2=NCCCN2c2ccccc21.Cl,2.9
19,COc1ccc(-c2csc(NC(=O)CN3C(=O)NC4(CCCC4)C3=O)n2)cc1OC,22.1
20,COCCn1cnnc1SCC(=O)Nc1cccc(S(=O)(=O)N2CCCCC2)c1,1.55
21,Cc1cc(C(F)(F)F)nn1CC(=O)NCc1ccccc1,-2.12
22,CN(C)S(=O)(=O)c1cccc(COc2ccccc2C(=O)Nc2ccccc2)c1,1.14
23,CCCCOc1ccc(NC(=O)CSCC(=O)OCC)cc1,18.1

row,SMILES,"hERG current change (%, negative = inhibition) at 1uM [%]"
1,CCOC(=O)C1CCN(S(=O)(=O)c2ccccc2)CC1,10.6
2,Cc1ccc(C(=O)Nc2sc3c(c2C(=O)NCc2ccco2)CCCC3)cc1,13.2
3,N/N=C(\c1ccccc1)c1cc(Br)ccc1N,10.5
4,C1CCN=C(NC23CC4CC(CC(C4)C2)C3)CC1,10.1
5,CCOC(=O)/C=C/[C@H]1CC(c2ccccc2)(c2ccccc2)CO1,12.5
6,O=C(CSc1nnc(C2CC2)n1C1CC1)Nc1cccc(Br)c1,-36.4
7,O=C1c2ccccc2C(=O)N1c1ccc(S(=O)(=O)N2CCN(c3ccccc3)CC2)cc1,2.89
8,CN(/N=C/c1ccco1)C1=NS(=O)(=O)c2ccccc21,11
9,CCOc1ccc(N2C(=O)CC(NC3CCCCNC3=O)C2=O)cc1 (stereo not shown),13.2
10,CC(=O)Nc1ccc(S(=O)(=O)N2CCN(c3ncccn3)CC2)cc1,14.2
11,CCOC(=O)c1ccc2nc(C)c(C)nc2c1,3.64
12,COc1ccc(NC(=O)CO/N=C(\C)c2cccs2)cc1,15
13,Cc1ccc(/C=C/C(=O)NCCCc2ccccc2)cc1,7.56
14,Cc1cc(C)n2cc(CSc3ncccc3C(=O)O)nc2n1,11
15,CCCCN(CC(=O)NCc1ccc(Cl)cc1)S(=O)(=O)c1ccc2c(c1)OCCO2,12.2
16,Cc1cccc(NC(=S)NNc2cccc(Cl)c2)c1,8.26
17,Cc1ccc(NC(=O)COC(=O)c2cccnc2Cl)cc1S(=O)(=O)N1CCCCC1,5.74
18,Cl.Nc1ccc2nc(C(F)(F)F)[nH]c2c1,14.8
19,Cc1ccc[n+](CC(=O)c2ccc(NC(=O)c3ccccc3)cc2)c1C,12.6
20,COc1ccc(NC(=O)C2CC(=O)N/C(=N/N=C/c3ccco3)S2)cc1 (stereo not shown),12.6
21,CN(C)CCN(Cc1cc2cc3c(cc2nc1Cl)OCO3)C(=O)c1ccco1,26.3
22,CSc1ccc(C2(O)Cc3cccc[n+]3C2c2ccccc2)cc1.[Br-] (stereo not shown),10.5
23,O=C(CSc1nnnn1-c1ccccc1)Nc1ncc2c(n1)CC(c1ccco1)CC2=O (stereo not shown),-0.182

row,SMILES,"hERG current change (%, negative = inhibition) at 1uM [%]"
1,Cc1cc(OCC(=O)N2CCCCCC2)ccc1[N+](=O)[O-],9.44
2,Cc1ccc(-n2nc3c(=O)n(C(C)C(=O)NCc4ccc(Cl)cc4)nc(C)c3c2C)cc1 (stereo not shown),-19
3,COc1ccc(S(N)(=O)=O)cc1C(=O)OCCCC(=O)c1ccccc1,9.67
4,CCN(CC)CCNC(=O)c1ccc(NC(=O)c2cn(-c3ccc(F)cc3)nc2-c2cccc(OC)c2)cc1,-8.82
5,O=c1[nH]c(-c2ccccn2)nc(C(F)(F)F)c1Br,9.06
6,CCO[C@H]1OC(C(=O)Nc2ccccc2)=C[C@@H](c2coc3ccccc3c2=O)[C@@H]1CCCO,5.79
7,CC(C)(C)OC(=O)NCCc1n[nH]c(=S)o1,14.7
8,O=C(c1ccc(OCC2CCCO2)cc1)N1CCN(c2ccccc2)CC1 (stereo not shown),9.25
9,COCc1cc(C)nc(N2CCNCC2)c1C#N,11.7
10,O=C(Nc1ccc(OCC(=O)N2CCOCC2)cc1)Nc1cccc(Cl)c1,7.47
11,COC(=O)CNc1nc(-c2ccccc2F)nc2ccccc12,5.2
12,CC(=O)Nc1ccc(C(=O)CSc2nnnn2C(C)C)cc1,1.27
13,CC(c1ccccc1)n1cnc2ccccc2c1=O (stereo not shown),16.1
14,Cn1nc(C(F)(F)F)c(C(=O)Nc2ccc(Cl)cc2)c1Cl,-3.91
15,CCOCCCNC(=O)C(NC(=O)Cc1cccs1)c1ccccc1 (stereo not shown),5.99
16,COc1ccc(-c2coc3c(CN4CCOCC4)c(O)ccc3c2=O)cc1,0.432
17,CCCCN(c1ccc(C(=O)OC)cc1)S(=O)(=O)c1ccccc1,6.44
18,Cc1cc(NCCc2ccccc2F)n2ncnc2n1,18.5
19,COC(=O)c1cccc(Nc2nc(-c3cccnc3)nc3ccccc23)c1,8.44
20,COc1ccc(C(=O)NNc2cc(C)nc(NNC(=O)c3ccc(OC)cc3)n2)cc1,10
21,Nc1ccc(Cl)cc1C(=O)OCC(=O)NC1CCS(=O)(=O)C1 (stereo not shown),15.7
22,CC1(C)CC(c2nc(-c3ccc(Cl)cc3)cs2)CCS1.Cl (stereo not shown),13.9
